Assay results published in PubChem BioAssay AID1347165 (National Center for Advancing Translational Sciences (NCATS), 2019).
Out of some 220,000 compounds screened, about 5,700 (2.6%) were called active. Inconclusive results, whose numbers are uncertain, are shown with a selection of clear calls. Calls come from the whole dose curve; as a rule, active = well fitted inhibition curve with a large enough effect; inconclusive = small, poorly fitted or top-dose-only effect; inactive = no such curve, though single readings can be large or run the other way. Where the call is inconclusive, the potency comes from a doubtful curve fit.
Note: nearly all actives have a fitted effect of over 70% in size.
Potency is the fitted concentration of half-maximal effect; tags give direction and shape of the fitted curve.
Throughout, for activity change, negative = inhibition: 0% is about no effect.

Each compound was assayed against Lysine-specific demethylase 5B (Homo sapiens) (UniProt Q9UGL1) (assay: Primary screen for KDM5B Histone Demethylases FDH-coupled qHTS). Conditions: FDH-coupled NADH fluorescence (FDH is formaldehyde dehydrogenase); activity change, negative = inhibition: at 57.7 µM (top of the series) unless noted.
UniProt Q9UGL1, sequence (Q9UGL1 whole entry, looked up): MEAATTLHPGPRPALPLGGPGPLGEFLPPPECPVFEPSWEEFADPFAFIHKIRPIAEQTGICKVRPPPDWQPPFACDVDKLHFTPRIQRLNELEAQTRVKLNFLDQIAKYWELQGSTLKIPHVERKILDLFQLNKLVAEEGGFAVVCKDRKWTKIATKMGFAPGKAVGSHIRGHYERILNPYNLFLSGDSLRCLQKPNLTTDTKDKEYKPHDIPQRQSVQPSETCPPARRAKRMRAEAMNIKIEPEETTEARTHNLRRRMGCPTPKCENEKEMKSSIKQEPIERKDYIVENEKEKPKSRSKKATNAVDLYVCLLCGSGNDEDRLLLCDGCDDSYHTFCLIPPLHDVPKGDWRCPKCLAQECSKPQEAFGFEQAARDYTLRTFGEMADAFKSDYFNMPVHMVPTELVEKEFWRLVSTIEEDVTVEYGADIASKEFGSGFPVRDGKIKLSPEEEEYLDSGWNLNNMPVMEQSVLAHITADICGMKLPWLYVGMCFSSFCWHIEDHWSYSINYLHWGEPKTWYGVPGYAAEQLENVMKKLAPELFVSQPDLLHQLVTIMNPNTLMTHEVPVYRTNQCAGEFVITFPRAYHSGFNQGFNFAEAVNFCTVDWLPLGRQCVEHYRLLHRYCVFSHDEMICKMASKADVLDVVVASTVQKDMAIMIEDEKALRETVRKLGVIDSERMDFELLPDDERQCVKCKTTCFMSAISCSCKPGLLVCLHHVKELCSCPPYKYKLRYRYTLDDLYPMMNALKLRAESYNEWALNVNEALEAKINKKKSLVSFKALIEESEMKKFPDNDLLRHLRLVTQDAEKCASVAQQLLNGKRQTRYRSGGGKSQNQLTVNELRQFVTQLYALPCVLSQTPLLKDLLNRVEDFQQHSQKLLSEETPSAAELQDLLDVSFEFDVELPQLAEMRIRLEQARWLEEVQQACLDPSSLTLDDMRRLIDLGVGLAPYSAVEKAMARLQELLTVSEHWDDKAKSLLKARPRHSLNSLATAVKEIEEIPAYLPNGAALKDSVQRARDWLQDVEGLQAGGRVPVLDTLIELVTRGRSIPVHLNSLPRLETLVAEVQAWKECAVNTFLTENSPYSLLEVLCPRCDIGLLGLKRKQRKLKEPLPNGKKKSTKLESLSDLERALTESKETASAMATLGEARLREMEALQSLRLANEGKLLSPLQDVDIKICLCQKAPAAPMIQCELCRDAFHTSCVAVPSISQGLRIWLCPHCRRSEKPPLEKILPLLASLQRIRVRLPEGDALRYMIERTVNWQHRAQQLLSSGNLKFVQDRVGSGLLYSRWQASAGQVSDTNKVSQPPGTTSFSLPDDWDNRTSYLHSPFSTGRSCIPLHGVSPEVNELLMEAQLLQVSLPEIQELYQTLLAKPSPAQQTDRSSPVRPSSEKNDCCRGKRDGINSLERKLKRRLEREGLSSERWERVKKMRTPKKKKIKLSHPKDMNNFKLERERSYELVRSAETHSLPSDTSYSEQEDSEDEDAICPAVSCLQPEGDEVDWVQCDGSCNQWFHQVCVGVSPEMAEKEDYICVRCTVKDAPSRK
Summary of the method: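 KDM5BΔAP (200 nM final) in 50 mM HEPES pH 7.5, 0.01% Tween-20 was preincubated 10 min at RT with compound over a concentration range. Substrate mix (H3K4me3 12.5 µM, α-KG 25 µM, Fe²⁺, ascorbate, NAD⁺, FDH) was added, and NADH fluorescence change over 30 min gave dose-response curves.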
Cc1ccc2nc(CC(C)(C)CC(=O)O)c[n+]([O-])c2c1 was tested, and the Potency was inconclusive: 25.1 µM [inhibitor, partial curve, poor fit]. With Cc1ccc2[nH]c(=O)c(CCC(=O)NCC(C)C)cc2c1 the Potency was inconclusive: 28.2 µM [inhibitor, single point]. For O=C1Nc2ccccc2C12CCN(CC1CCCCC1)C2 (centres undefined), the “activity change, negative = inhibition” value was inactive: -14.2% [at 149 µM]. With Cc1nc2ccccc2c(C(=O)O)c1C the “activity change, negative = inhibition” value was inactive: 13%. O=C(Nc1ccc(N2CCOCC2)cc1)C1CCN(c2cn[nH]c(=O)c2)C1 (centres undefined) was tested, and the “activity change, negative = inhibition” value was inactive: 5.2%. With Cc1ccc(NC2(c3nnnn3-c3ccccc3C)CCCCC2)cc1 the “activity change, negative = inhibition” value was inactive: 5.97%. O=C(Nc1ccc(Br)cc1F)c1ncoc1-c1ccco1 was tested, and the Potency was inconclusive: 28.2 µM [inhibitor, partial curve, poor fit]. CCC(C)c1ccc(-c2c(C)sc(N)c2C#N)cc1 (centres undefined) was tested, and the Potency was inconclusive: 31.6 µM [inhibitor, partial curve, poor fit]. Cc1c(C(=O)OCCOc2c(Cl)cc(Cl)cc2Cl)sc(=S)n1C was tested, and the “activity change, negative = inhibition” value was inactive: 1.53%. With CC1CCC(=C(C#N)C(=O)NC2CC2)CC1 (centres undefined) the “activity change, negative = inhibition” value was inactive: 13.2%. CCC(C)c1ccc(NC(=O)COC(=O)c2nn(C)c(=O)c3ccccc23)cc1 (centres undefined) was tested, and the “activity change, negative = inhibition” value was inactive: 9.77%. In the case of COc1cccc(-n2nnnc2N2CCN(C(=O)Nc3ccc(C)c(F)c3)CC2)c1, the “activity change, negative = inhibition” value is reported as inactive: 5.93% [at 115 µM]. With COc1ccc(-n2ncc(C(=O)N3CCc4ccccc4C3)c2C2CCN(C(=O)OC(C)(C)C)CC2)cc1 the Potency was inconclusive: 14.1 µM [inhibitor, partial curve, poor fit]. In the case of CCCOc1nc2ccccc2nc1N1CCC(C(=O)Nc2ccc(C(N)=O)cc2)CC1, the “activity change, negative = inhibition” value is reported as inactive: -22.2%. With CCCCN(C(=O)c1ccc(-c2ccc(Cl)cc2)o1)c1c(N)n(CCCC)c(=O)[nH]c1=O the Potency was inconclusive: 22.4 µM [inhibitor, partial curve, poor fit]. COc1ccc(NC(=O)N2CCN(c3cnccn3)CC2)cn1 was tested, and the “activity change, negative = inhibition” value was inactive: -18.2%. In the case of Cc1cccc(NC(=O)CSCC(=O)Nc2nnc(C3CC3)s2)c1, the “activity change, negative = inhibition” value is reported as inactive: -10.8%. With Cc1cc(C)c(NC(=O)C2CCN(c3nnc(C)c4c(C)n(-c5ccccc5)nc34)CC2)c(C)c1 the Potency was inconclusive: 28.2 µM [inhibitor, partial curve, poor fit]. For CCN1c2cc(C(=O)Nc3ccc(OC)cc3C)ccc2C(=O)N2CCCCCC21 (centres undefined), the Potency was inconclusive: 25.1 µM [inhibitor, partial curve, poor fit]. In the case of O=C(Cn1nc(C(=O)O)c2ccccc2c1=O)c1ccc(C2CCCCC2)cc1, the “activity change, negative = inhibition” value is reported as inactive: -1.88%. With O=C(Cn1ccn2nc(-c3ccccc3)c(CO)c2c1=O)NCc1ccc2c(c1)OCO2 the Potency was active: 31.6 µM. Cc1c(-c2nnc(-c3ccc(OC(C)C)cc3)o2)oc2ccccc12 was tested, and the Potency was inconclusive: 14.1 µM [inhibitor, partial curve, poor fit]. With O=C(CSc1nccn1Cc1ccc(Cl)cc1)Nc1ccc2c(c1)OCCO2 the “activity change, negative = inhibition” value was inactive: -15.3%. With COc1cccc(C(c2c(O)cc(C)n(Cc3ccco3)c2=O)N2CCN(c3ccccc3)CC2)c1 (centres undefined) the Potency was inconclusive: 28.2 µM [inhibitor, partial curve, poor fit]. With CCOCCCn1c(SCC(=O)Nc2ccc(C)cc2)nc2ccccc2c1=O the activity change, negative = inhibition was inconclusive: -30.4% [inhibitor]. COc1ccccc1-n1nc(-c2c(C)nc3scc(CC(=O)NCCC(C)C)n3c2=O)cc1C was tested, and the Potency was active: 28.2 µM. With CC(=O)c1ccc(NC(=O)c2cccc3c2ccn3C)cc1 the “activity change, negative = inhibition” value was inactive: 122%. With N=C1C(c2nc3ccccc3c(=O)[nH]2)=C(O)CN1c1ccc(Cl)cc1Cl the “activity change, negative = inhibition” value was inactive: -24.2%. For Cc1ccc(CNC(=O)C(CC(C)C)NC(=O)c2ccccc2C)cc1 (centres undefined), the “activity change, negative = inhibition” value was inactive: 20.7%. COCCNc1nc2c([S+](=O)([O-])c3cccnc3)nnn2c2ccccc12 was tested, and the Potency was inconclusive: 79.4 µM [inhibitor, partial curve]. For CCNC(=O)Cn1c(CO)cnc1SCc1ccccc1Cl, the “activity change, negative = inhibition” value was inactive: 15.6%. In the case of COc1cccc(C(=O)N2C(C(=O)NC(C)C)COC23CCN(C(=O)c2ccccc2F)CC3)c1 (centres undefined), the “activity change, negative = inhibition” value is reported as inactive: -3.41%. In the case of CC(C)CNc1nc(-c2ccc(S(=O)(=O)N3CCOCC3)cc2)cs1, the Potency is reported as inconclusive: 14.1 µM [inhibitor, partial curve, poor fit]. With O=C(O)C1CC2(CCN(C(=O)c3ccccc3N3CCCC3)CC2)CN1 (centres undefined) the Potency was inconclusive: 17.8 µM [inhibitor, partial curve, poor fit]. For CC(C)CN(Cc1ccc(F)cc1)Cc1cc(=O)n2c3c(sc2n1)CCCC3, the Potency was inconclusive: 25.1 µM [inhibitor, partial curve, poor fit]. For Cc1ccc2c(=O)cc(CSCC(=O)Nc3nnc(C)s3)[nH]c2c1, the Potency was inconclusive: 12.6 µM [inhibitor, partial curve, poor fit]. With O=C(CCC[C@@H]1[C@H]2CCCN3CCC[C@@H](CN1Cc1cccnc1)[C@@H]23)Nc1cccnc1 the Potency was inconclusive: 22.4 µM [inhibitor, partial curve]. With COc1ccc(OC)c(NC(=O)CSc2nc3ccccc3nc2N2CCCCC2)c1 the Potency was inconclusive: 31.6 µM [inhibitor, single point]. With COc1ccccc1CN1CCCC(C(=O)N2CCCCC2)C1 (centres undefined) the Potency was inconclusive: 3.98 µM [inhibitor, full curve, poor fit]. In the case of O=C(NCc1ccc(F)cc1)c1c(O)nc2ccccn2c1=O, the Potency is reported as inconclusive: 35.5 µM [inhibitor, partial curve, poor fit]. With Cc1cc(Nc2cccc(C(F)(F)F)c2)nc2ccc(NC(=O)c3ccc(=O)[nH]c3)cc12 the Potency was inconclusive: 15.8 µM [inhibitor, partial curve, poor fit]. For CC1=[N+](C)N(c2ccccc2)C(=O)C1N=C/C=C/c1ccccc1 (centres undefined), the Potency was inconclusive: 22.4 µM [inhibitor, partial curve, poor fit]. For CCCNC(=O)NC(=O)CN(C)C(C)C1CC1 (centres undefined), the “activity change, negative = inhibition” value was inactive: 5.59%. For Cc1nc(N2CCCC2)c2c(C(=O)NCc3ccco3)c(C)oc2n1, the “activity change, negative = inhibition” value was inactive: 4.27%. With CCOc1cc2c(cc1/C=C/C(=O)O)OC(C)C2 (centres undefined) the Potency was inconclusive: 28.2 µM [inhibitor, partial curve, poor fit]. c1ccc(-c2cc(CC3(NCC4CC4)COC3)no2)nc1 was tested, and the Potency was inconclusive: 35.5 µM [inhibitor, partial curve, poor fit]. With COc1ccc(-c2noc([C@@H]3Cc4nc[nH]c4CN3C(=O)CCC(=O)O)n2)cc1 the Potency was inconclusive: 44.7 µM [inhibitor, partial curve, poor fit]. With O=C(N1CCCCC1)N1CCCC(c2nnc3n2CCNC3)C1 (centres undefined) the Potency was inconclusive: 50.1 µM [inhibitor, partial curve, poor fit]. With O=C(CCC1CCCN(S(=O)(=O)c2ccccc2F)C1)NCCN1CCCC1 (centres undefined) the Potency was inconclusive: 22.4 µM [inhibitor, partial curve]. With O=C(Nc1ccc2oc(-c3ccc4ccccc4c3)nc2c1)c1ccccc1F the Potency was inconclusive: 3.55 µM [inhibitor, partial curve, poor fit]. In the case of COc1ccccc1-c1nnc(NC(=O)c2ccc(S(=O)(=O)N(C)CC3CCCO3)cc2)o1 (centres undefined), the Potency is reported as inconclusive: 15.8 µM [inhibitor, partial curve, poor fit]. O=C(OCC1CCCO1)c1ccc2c(c1)N(Cc1ccccc1Cl)C(=O)c1ccccc1S2(=O)=O (centres undefined) was tested, and the activity change, negative = inhibition was inconclusive: -35.6% [inhibitor]. For CCOc1ccc(-n2c(=O)c3c4c(sc3n(CC(=O)Nc3cccc(C(F)(F)F)c3)c2=O)CCCCC4)cc1, the “activity change, negative = inhibition” value was inactive: -2.62%. In the case of O=C(CCc1ccccc1)NCc1nnc2ccc(-c3ccccc3)nn12, the Potency is reported as active: 28.2 µM. Cc1nn(-c2ccc(C(C)C)cc2)c(C)c1[C@@H]1C=C[C@@H](NCc2cccc(Cl)c2)C1 was tested, and the Potency was inconclusive: 28.2 µM [inhibitor, partial curve]. With Cc1ccc(CS(=O)(=O)c2ncc(Cl)c(C(=O)Nc3nc4ccc(F)cc4s3)n2)cc1 the Potency was inconclusive: 7.94 µM [inhibitor, partial curve, poor fit]. O=C(N/N=C/c1ccccn1)c1sc2ccccc2c1Cl was tested, and the Potency was inconclusive: 25.1 µM [inhibitor, partial curve, poor fit]. In the case of Cc1noc(C)c1CCC(=O)N1CC[C@@H](NC(=O)c2cnccn2)[C@H](O)C1, the Potency is reported as inconclusive: 1.78 µM [inhibitor, full curve]. Cc1cc(-c2csc(NC3CC3)n2)c(C)n1-c1c(C)n(C)n(-c2ccccc2)c1=O was tested, and the “activity change, negative = inhibition” value was inactive: -10.3%. With Cc1ccc(S(=O)(=O)Nc2ccc(-c3cn4ccsc4n3)cc2)s1 the “activity change, negative = inhibition” value was inactive: -0.627%. For CCN(CC)c1nc(N(C)C)nc(-n2cnc(SCc3ccccc3)n2)n1, the “activity change, negative = inhibition” value was inactive: -10.8%. COC(=O)C(=O)CC(=O)c1ccc(Cl)s1 was tested, and the Potency was inconclusive: 25.1 µM [inhibitor, single point]. CC(=O)NC[C@H]1Cn2c(-c3ccc4c(c3)OCCO4)cnc2CO1 was tested, and the Potency was inconclusive: 31.6 µM [inhibitor, single point]. CCC(Oc1ccccc1)C(=O)Nc1cc(-c2ccccc2OC)nn1-c1ccccc1 (centres undefined) was tested, and the Potency was inconclusive: 31.6 µM [inhibitor, partial curve, poor fit]. In the case of CC1(C(=O)NCc2cccc(F)c2)CCCCC(=O)N1 (centres undefined), the “activity change, negative = inhibition” value is reported as inactive: -31.3%. In the case of CC(C)NC(=O)C1COC2(CCN(C(=O)c3ccc(F)cc3F)CC2)N1C(=O)c1ccc(F)cc1 (centres undefined), the “activity change, negative = inhibition” value is reported as inactive: -3.75%. For Cc1cc(=O)oc2c(C)c(OC(C)C(=O)NCCCN3CCOCC3)ccc12 (centres undefined), the Potency was inconclusive: 28.2 µM [inhibitor, single point]. COc1ccc(CN2CCCN(C(=O)c3cn(C)nc3-c3ccc4c(c3)OCCCO4)CC2)cc1 was tested, and the “activity change, negative = inhibition” value was inactive: 12.9%. In the case of CC(=O)Nc1ccc(-c2c(-c3ccc4c(c3)OCO4)nn(-c3cc(C)ccc3C)c2OC(C)=O)cc1, the Potency is reported as inconclusive: 17.8 µM [inhibitor, partial curve].
